Data: PubChem BioAssay AID493208 (National Center for Advancing Translational Sciences (NCATS), 2011)
Out of some 44,000 compounds screened, about 340 (0.77%) were called active. Not shown: some 5% with an inconclusive outcome. Calls come from the whole dose curve; as a rule, active = well fitted inhibition curve with a large enough effect; inconclusive = small, poorly fitted or top-dose-only effect; inactive = flat fitted curve, though single readings scatter. The list shows a part of the results.

Assay: Acumen qHTS Assay for Inhibitors of the mTORC1 Signaling Pathway in MEF (Tsc2-/-, p53-/-) Cells: Sytravon; note: nearly all actives have a fitted effect of over 50% in size;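 for activity change, negative = inhibition: plate controls were DMSO for no effect and rapamycin for full effect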
Details: phospho-rpS6 immunofluorescence/PI, 24 h; series mostly up to 38.3 µM; activity change, negative = inhibition: at the top concentration
How it was run: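 Readout is phospho-S6 Alexa 488 signal normalized to PI per well, reported as % active cells with thresholds set from rapamycin (7.5 nM) and DMSO controls. Cells: Tsc2-/-, p53-/- MEFs, 24 hrs compound at 37 C; PI cell number serves as viability.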
Potency is the fitted concentration of half-maximal effect.

| Compound | activity change, negative = inhibition | Potency |
| --- | --- | --- |
| O=C(CN1C(=O)C2(SCC(=O)N2c2ccc(Cl)cc2)c2ccccc21)NCCc1ccccc1 (stereo not drawn) | inactive: -4.57% |  |
| COc1ccc(Cl)cc1NS(=O)(=O)c1c(C)[nH]c(=O)[nH]c1=O | inactive: -10.1% |  |
| CCOc1ccccc1NC(=O)c1c(NC(=O)c2ccncc2)sc2c1CCC(C(C)(C)C)C2 (stereo not drawn) | inactive: 3.27% |  |
| Cc1ccc(O)c(NC(=O)CCSc2nc(-c3ccco3)cc(C(F)(F)F)n2)c1 | inactive: 5.19% |  |
| COc1ccc(Cl)cc1NC(=O)c1c(NCc2cccs2)sc2c1CCCC2 | inactive: -18% |  |
| Oc1ccc(NCc2ccccc2OCc2ccccc2Cl)cc1 | inactive: -27.9% |  |
| CN(C)c1ccc(NC(=O)CSC2=Nc3ccccc3C3=NC(CC(=O)NCc4ccc5c(c4)OCO5)C(=O)N23)cc1 (stereo not drawn) | inactive: 0.251% |  |
| Cc1ccc(S(=O)(=O)Nc2c(C)nc3nc(C)[nH]n3c2=O)c(C)c1 | inactive: -8.79% |  |
| COc1ccc(C(=O)NCc2nnc(SCC(=O)Nc3ccc(F)cc3)n2-c2ccccc2)cc1 | inactive: 0.806% |  |
| COC(=O)c1ccc(NC(=O)CSc2nc3c(c(=O)n(C)c(=O)n3C)n2Cc2ccccc2)cc1 | inactive: -11.7% |  |
| CC(C)C(=O)c1cc2c(cc1NC(=O)c1ccccc1F)OCCO2 | inactive: -0.771% |  |
| Cc1ccc(COc2cccc3cc(-c4noc(-c5ccc(C)cc5)n4)c(=O)oc23)cc1 | inactive: 6.48% |  |
| Cc1ccc(C(=O)c2oc3ccccc3c2NC(=O)COc2ccc(C(C)(C)C)cc2)cc1 | inactive: -2.63% |  |
| CC(=O)N1CCc2cc(S(=O)(=O)CCC(=O)N3CCN(c4ccccc4F)CC3)ccc21 | inactive: -0.403% |  |
| Cc1cc(Nc2ccc(Cl)cc2)n2cnnc2n1 | inactive: -0.187% |  |
| COc1ccccc1Cc1nc2ccccc2nc1SCC(=O)N1CCCc2ccccc21 | inactive: -22.1% |  |
| Cc1ccccc1-c1noc(-c2cc(C(C)C)[nH]n2)n1 | inactive: 2.02% |  |
| CCOc1ccccc1N1CC(c2nc3ccccc3n2CCOc2ccccc2OC)CC1=O (stereo not drawn) | inactive: 0.494% |  |
| COc1ccc(-c2nnc(SCC(=O)c3ccc([N+](=O)[O-])cc3)o2)cc1OC | inactive: 0.514% |  |
| Cn1nc(-c2ccc(C(=O)Nc3ccc(OC(F)(F)F)cc3)cc2)c2ccccc2c1=O | inactive: 2.15% |  |
| O=C(NCc1ccccc1Cl)C(=O)NCC(c1cccs1)S(=O)(=O)c1ccccc1 (stereo not drawn) | inactive: -6.42% |  |
| N#C/C(=C\c1ccc(-c2ccc(Cl)c(C(=O)O)c2)o1)c1nc2ccccc2[nH]1 | inactive: 4.21% |  |
| Cc1cccn2c(=O)c3cc(C(=O)NC(C)c4ccccc4)c(=N)n(CCOCCO)c3nc12 (stereo not drawn) | inactive: 0.827% |  |
| CC(C)c1ccc(-c2noc(SCC(=O)N(C)c3ccc(F)cc3)n2)cc1 | inactive: -9.49% |  |

| Compound | activity change, negative = inhibition | Potency |
| --- | --- | --- |
| CCOC(=O)c1cc(OC(=O)c2cccc(F)c2)n(-c2ccccc2)n1 | inactive: 12.1% |  |
| CC(=O)N1CCCc2ccc(NC(=O)c3ccc(C(F)(F)F)cc3)cc21 | inactive: 0.978% |  |
| CCOc1ccc(N(C(=O)c2ccc(OC)cc2)S(=O)(=O)c2ccc3c(c2)n(C)c(=O)n3C)cc1 | inactive: 1.09% |  |
| CC(C)c1ccc(NC(=O)CN2C=NS(=O)(=O)c3ccccc32)cc1 | inactive: -0.833% |  |
| CCC(=O)OC1=CN(Cc2ccccc2)S(=O)(=O)c2ccccc21 | inactive: -1.57% |  |
| CCC(=O)C1=C(c2ccc(F)cc2)N(C(=O)CC)n2c(nnc2C2CCCCC2)S1 | inactive: 0.283% |  |
| CCN(CC)S(=O)(=O)c1ccc2c(c1)N(CC(=O)Nc1c(C)cc(C)cc1C)C(=O)CS2 | inactive: 3.47% |  |
| Cc1cc(C)cc(NC(=O)CSc2nnc(CNC(=O)c3c(F)cccc3Cl)o2)c1 | inactive: -0.717% |  |
| COC(=O)c1cc2oc(C)cc2n1Cc1ccc(C)cc1 | inactive: 8.2% |  |
| Cc1cccc(N2CCN(C(=O)CN3C(=O)COc4ccc(S(=O)(=O)N5CCCC5)cc43)CC2)c1C | inactive: 1.12% |  |
| N#C/C(=C\c1c(Oc2ccc(F)cc2)nc2ccccn2c1=O)c1nc2ccccc2s1 | inactive: 1.16% |  |
| CCCOc1ccc(C(=O)Nc2sc3c(c2C(=O)OCC)CCCCC3)cc1 | inactive: -9.97% |  |
| O=C1CC(c2ccc(F)cc2)c2c(n3c(nc4ccccc43)[nH]c2=O)N1 (stereo not drawn) | inactive: -7.49% |  |
| CCc1ccc(CNC(=O)C2CCN(C(=O)c3ccc(-n4ccc5ccccc54)s3)CC2)cc1 | inactive: 11.9% |  |
| Cc1ccccc1CS(=O)(=O)c1ncc(Cl)c(C(=O)Nc2nnc(C(C)C)s2)n1 |  | active: 9.27 µM |
| Cc1oc(-c2cccc(Br)c2)nc1CSc1nc2ncccc2[nH]1 | inactive: -1.13% |  |
| COc1cc2ccccc2cc1C(=O)Nc1cccc(-c2nc3ccccc3o2)c1 | inactive: 0.165% |  |
| COc1ccc(N2CCN(C(=O)c3cn(C)c4ccc(S(=O)(=O)N(C)C5CCCCC5)cc4c3=O)CC2)cc1 | inactive: 0.25% |  |
| COc1ccc(CNC(=O)C2CCN(S(=O)(=O)c3c(C)noc3/C=C/c3cccs3)CC2)cc1 | inactive: -5.71% |  |
| Cc1ccc(NC(=O)c2c(C(=O)Nc3ccccc3)sc3nc(C)cc(=O)n23)cc1 | inactive: 0.856% |  |
| CC(C(=O)NCc1cccc(Br)c1)n1ncn2cccc2c1=O (stereo not drawn) |  | active: 0.585 µM |
| Cc1ccccc1NC(=O)CCOc1ccccc1 | inactive: 4.67% |  |
| Cn1cc(-c2cc3n(n2)CCC(=O)N3CCCC(=O)Nc2ccccc2Cl)c2ccccc21 | inactive: -4.62% |  |
| Cc1ccccc1S(=O)(=O)Cc1ccc(C(=O)NCc2ccccc2Cl)o1 | inactive: -15.5% |  |
